Laboratory results from a collection of fitness landscapes (doi:10.1016/j.celrep.2020.107928).
The full ranking holds about 81,000 sequences; the median of “one-hybrid fitness for binding NBS DNA” is about -0.1, and the highest 2% start at about 0.36. The list shows a part of the results.

B1: Caulobacter ParB omega fusion; a variant is named by its letters at X, in order, B8GW30 (parent)
chain: MESVVVGEPGMSEGRRGLGRGLSALLGEVDAAPAQAPGEQLGGSREAPIEILQRNPDQPRRTFREEDLEDLSNSIREKGVLQPILVRPSPDTAGEYQIVAGERAWRAAQRAGLKTVPIMVRELDDLAVLEIGIIENVQRADLNVLEEALSYKVLMEKFERTQENIAQTIGKSXSHVANXMRLLXLPDEVQSYLVSGELTAXHARAIAAAADPVALAKQIIEGGLSVRETEALARKAPNLSAGKSKGGRPPRVKDTDTQALESDLSSVLGLDVSIDHRGSTGTLTITYATLEQLDDLCNRLTRGI

Variants of: B1
Assay: one-hybrid fitness for binding NBS DNA (the Noc-binding site; scaled: cognate 1, non-cognate 0); higher = stronger binding
Conditions: with NBS DNA site
Outline: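 Fitness is the rescaled log change in variant-to-wild-type read ratio, measured by Illumina sequencing of plasmids before and after bacterial one-hybrid selection. The scale puts cognate at 1 and non-cognate at 0. Selection of Caulobacter ParB libraries, four specificity codons randomised, took place in E. coli USO with a HIS3 reporter, site 19 bp from the promoter, over 48 hours at 37°C on M9-minus-histidine with 0.1 mM IPTG and 5 mM 3-AT.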

Row | Variant | one-hybrid fitness for binding NBS DNA
1 | YPDR | ≤ 0.2
2 | IWHG | ≤ 0.2
3 | HVNK | ≤ 0.2
4 | RGCS | ≤ 0.2
5 | THTI | ≤ 0.2
6 | QMKN | 0.4
7 | YKHY | ≤ 0.2
8 | WVHL | ≤ 0.2
9 | TRCG | ≤ 0.2
10 | SVLR | ≤ 0.2
11 | VRAQ | ≤ 0.2
12 | PYVG | ≤ 0.2
13 | PGRM | ≤ 0.2
14 | AHAK | ≤ 0.2
15 | DHSG | ≤ 0.2
16 | SWPE | ≤ 0.2
17 | SWAS | ≤ 0.2
18 | SAGN | ≤ 0.2
19 | HTGL | ≤ 0.2
20 | MYTC | ≤ 0.2
21 | KPLN | ≤ 0.2
22 | ACDC | ≤ 0.2
23 | PQQW | ≤ 0.2
24 | NWRR | ≤ 0.2

Row | Variant | one-hybrid fitness for binding NBS DNA
25 | HYEL | ≤ 0.2
26 | FSSD | ≤ 0.2
27 | LCQS | ≤ 0.2
28 | ASHH | ≤ 0.2
29 | QTDI | ≤ 0.2
30 | LREA | ≤ 0.2
31 | WMTV | ≤ 0.2
32 | ARLC | ≤ 0.2
33 | RTLF | ≤ 0.2
34 | FEPI | ≤ 0.2
35 | KQFN | ≤ 0.2
36 | RCSK | ≤ 0.2
37 | QWLY | ≤ 0.2
38 | LAKY | ≤ 0.2
39 | MRVT | ≤ 0.2
40 | RSTL | ≤ 0.2
41 | CLPL | ≤ 0.2
42 | SPER | ≤ 0.2
43 | NRTE | ≤ 0.2
44 | NVDS | ≤ 0.2
45 | LENS | ≤ 0.2
46 | TVMR | ≤ 0.2
47 | YRMM | ≤ 0.2
48 | PYWT | 0.298

Row | Variant | one-hybrid fitness for binding NBS DNA
49 | FVYG | ≤ 0.2
50 | PTEN | ≤ 0.2
51 | GSTF | ≤ 0.2
52 | NMER | ≤ 0.2
53 | KLRV | ≤ 0.2
54 | MRQG | ≤ 0.2
55 | LHRV | ≤ 0.2
56 | RANW | ≤ 0.2
57 | NDNI | ≤ 0.2
58 | DQYG | ≤ 0.2
59 | PSKL | ≤ 0.2
60 | ITEV | ≤ 0.2
61 | DMRR | ≤ 0.2
62 | APWP | ≤ 0.2
63 | HFRF | ≤ 0.2
64 | SYER | ≤ 0.2
65 | HREL | ≤ 0.2
66 | ISMG | ≤ 0.2
67 | VNHG | ≤ 0.2
68 | MGLP | ≤ 0.2
69 | QMTT | 0.463
70 | CNWG | ≤ 0.2
71 | GMMR | ≤ 0.2
72 | SMSY | ≤ 0.2

Row | Variant | one-hybrid fitness for binding NBS DNA
73 | TLCE | ≤ 0.2
74 | LHTE | ≤ 0.2
75 | KMSS | ≤ 0.2
76 | FLHR | ≤ 0.2
77 | MLWF | ≤ 0.2
78 | TLKW | ≤ 0.2
79 | MNDC | ≤ 0.2
80 | KNTL | ≤ 0.2
81 | VPEK | ≤ 0.2
82 | ILSW | ≤ 0.2
83 | VMCG | ≤ 0.2
84 | NFMR | ≤ 0.2
85 | YEAF | ≤ 0.2
86 | MSVT | ≤ 0.2
87 | QSSD | ≤ 0.2
88 | LYPT | ≤ 0.2
89 | KMSN | ≤ 0.2
90 | QPRG | ≤ 0.2
91 | VQGR | ≤ 0.2
92 | AGSE | ≤ 0.2
93 | FGLS | ≤ 0.2
94 | HNMC | ≤ 0.2
95 | LTPY | ≤ 0.2
96 | RIPG | ≤ 0.2

Row | Variant | one-hybrid fitness for binding NBS DNA
97 | PNMA | ≤ 0.2
98 | TVRF | ≤ 0.2
99 | NYST | ≤ 0.2
100 | ALDR | ≤ 0.2
101 | KTRP | ≤ 0.2
102 | PHCW | ≤ 0.2
103 | QCPC | ≤ 0.2
104 | LTKE | ≤ 0.2
105 | GDTF | ≤ 0.2
106 | PRHG | ≤ 0.2
107 | QVLE | ≤ 0.2
108 | NVAG | ≤ 0.2
109 | HRPW | ≤ 0.2
110 | YTRH | ≤ 0.2
111 | QYKS | 0.643
112 | DCFS | ≤ 0.2
113 | SRMV | ≤ 0.2
114 | SLWC | ≤ 0.2
115 | RKNG | ≤ 0.2
116 | WTLR | ≤ 0.2
117 | LPDT | ≤ 0.2
118 | RATH | ≤ 0.2
119 | DYIA | ≤ 0.2
120 | PAIT | ≤ 0.2

Row | Variant | one-hybrid fitness for binding NBS DNA
121 | CHFG | ≤ 0.2
122 | ISGR | ≤ 0.2
123 | RWGE | ≤ 0.2
124 | AYKG | ≤ 0.2
125 | RWPC | ≤ 0.2
126 | DVWY | ≤ 0.2
127 | DHAD | ≤ 0.2
128 | DKQS | ≤ 0.2
129 | HWKA | ≤ 0.2
130 | PHKW | ≤ 0.2
131 | SRGI | ≤ 0.2
132 | GVTM | ≤ 0.2
133 | DPRP | ≤ 0.2
134 | KREG | ≤ 0.2
135 | PHWS | ≤ 0.2
136 | LKLG | ≤ 0.2
137 | KRYR | 0.545
138 | NTER | ≤ 0.2
139 | GRDD | ≤ 0.2
140 | IEHR | ≤ 0.2
141 | KNAT | ≤ 0.2
142 | QTYC | ≤ 0.2
143 | SCCS | ≤ 0.2
144 | LMNR | ≤ 0.2

Row | Variant | one-hybrid fitness for binding NBS DNA
145 | KYLW | ≤ 0.2
146 | QHVV | ≤ 0.2
147 | VPGR | ≤ 0.2
148 | LHKG | ≤ 0.2
149 | KLGY | ≤ 0.2
150 | TLFL | ≤ 0.2
151 | QATE | ≤ 0.2
152 | GRNE | ≤ 0.2
153 | DLQW | ≤ 0.2
154 | AQDP | ≤ 0.2
155 | YTLL | ≤ 0.2
156 | AYGS | ≤ 0.2
157 | NWFS | ≤ 0.2
158 | CTPA | ≤ 0.2
159 | PCAH | ≤ 0.2
160 | SWYG | ≤ 0.2
161 | NCKH | ≤ 0.2
162 | WSLA | ≤ 0.2
163 | FFKR | ≤ 0.2
164 | KQYG | ≤ 0.2
165 | GPNA | ≤ 0.2
166 | MCQG | ≤ 0.2
167 | PNVE | ≤ 0.2
168 | IESM | ≤ 0.2

Row | Variant | one-hybrid fitness for binding NBS DNA
169 | FNMT | ≤ 0.2
170 | QTEG | ≤ 0.2
171 | TVSR | ≤ 0.2
172 | PHWA | ≤ 0.2
173 | CGFR | ≤ 0.2
174 | QKDV | ≤ 0.2
175 | DPRK | ≤ 0.2
176 | YIIG | ≤ 0.2
177 | SHPK | ≤ 0.2
178 | NTYW | ≤ 0.2
179 | AYYA | ≤ 0.2
180 | ELMR | ≤ 0.2
181 | RWPS | ≤ 0.2
182 | CWKP | ≤ 0.2
183 | WGLT | ≤ 0.2
184 | QLGM | ≤ 0.2
185 | REMG | ≤ 0.2
186 | HAKP | ≤ 0.2
187 | EGTS | ≤ 0.2
188 | NHDR | ≤ 0.2
189 | QKRR | 0.993
190 | PNLN | ≤ 0.2
191 | VSLD | ≤ 0.2
192 | LLWT | ≤ 0.2

Row | Variant | one-hybrid fitness for binding NBS DNA
193 | SHKG | ≤ 0.2
194 | HSRY | ≤ 0.2
195 | ESTI | ≤ 0.2
196 | LNQW | ≤ 0.2
197 | PFVA | ≤ 0.2
198 | RAAE | ≤ 0.2
199 | EVGC | ≤ 0.2
200 | PALD | ≤ 0.2
201 | GATV | ≤ 0.2
202 | ITTI | ≤ 0.2
203 | YDYM | ≤ 0.2
204 | QHIM | ≤ 0.2
205 | AKDK | ≤ 0.2
206 | RKNY | 0.27
207 | TGDF | ≤ 0.2
208 | QFKC | ≤ 0.2
209 | SPIP | ≤ 0.2
210 | DGIS | ≤ 0.2
211 | GISY | ≤ 0.2
212 | NWRG | ≤ 0.2
213 | QREA | 0.288
214 | DTWG | ≤ 0.2
215 | RLYL | ≤ 0.2
216 | EMAT | ≤ 0.2

Row | Variant | one-hybrid fitness for binding NBS DNA
217 | SRTY | ≤ 0.2
218 | MSSH | ≤ 0.2
219 | KRMQ | ≤ 0.2
220 | KRHY | 0.254
221 | EAER | ≤ 0.2
222 | SGLY | ≤ 0.2
223 | NQSS | ≤ 0.2
224 | HSVL | ≤ 0.2
225 | HRME | ≤ 0.2
226 | HGDR | ≤ 0.2
227 | AEEY | ≤ 0.2
228 | HSST | ≤ 0.2
229 | PFKE | ≤ 0.2
230 | RRRR | 0.904
231 | FHPS | ≤ 0.2
232 | NDIV | ≤ 0.2
233 | RGMW | ≤ 0.2
234 | GGRR | ≤ 0.2
235 | HVSY | ≤ 0.2
236 | QHQV | ≤ 0.2
237 | PYDN | ≤ 0.2
238 | PHQL | ≤ 0.2
239 | HRRV | ≤ 0.2
240 | RALD | ≤ 0.2

Row | Variant | one-hybrid fitness for binding NBS DNA
241 | RFQH | ≤ 0.2
242 | VKIS | ≤ 0.2
243 | SPTL | ≤ 0.2
244 | QLRN | 0.319
245 | PTMQ | ≤ 0.2
246 | NPSH | ≤ 0.2
247 | QLVF | ≤ 0.2
248 | LPYN | ≤ 0.2
249 | ELRG | ≤ 0.2
250 | TTWD | ≤ 0.2
251 | VEHY | ≤ 0.2
252 | VNKN | ≤ 0.2
253 | RQDD | ≤ 0.2
254 | ALMT | ≤ 0.2
255 | ARMT | ≤ 0.2
256 | RNDD | ≤ 0.2
257 | VYPC | ≤ 0.2
258 | VLRD | ≤ 0.2
259 | AVVY | ≤ 0.2
260 | TNPH | ≤ 0.2
261 | KLPC | ≤ 0.2
262 | ALKR | ≤ 0.2
263 | MFLG | ≤ 0.2
264 | TAVS | ≤ 0.2

Row | Variant | one-hybrid fitness for binding NBS DNA
265 | MRNS | ≤ 0.2
266 | PLTK | ≤ 0.2
267 | WSCR | ≤ 0.2
268 | YIRR | ≤ 0.2
269 | KASV | ≤ 0.2
270 | REMK | ≤ 0.2
271 | HASI | ≤ 0.2
272 | KARN | ≤ 0.2
273 | HYTR | ≤ 0.2
274 | QNQL | ≤ 0.2
275 | FTKC | ≤ 0.2
276 | QWLL | ≤ 0.2
277 | MTKQ | ≤ 0.2
278 | LIQC | ≤ 0.2
279 | RAEI | ≤ 0.2
280 | PTSE | ≤ 0.2
281 | DQNF | ≤ 0.2
282 | HNTN | ≤ 0.2
283 | RVDP | ≤ 0.2
284 | LWVG | ≤ 0.2
285 | RKNT | 0.698
286 | LYRY | ≤ 0.2
287 | DVFC | ≤ 0.2
288 | PCTY | ≤ 0.2

Row | Variant | one-hybrid fitness for binding NBS DNA
289 | MRCE | ≤ 0.2
290 | SNYC | ≤ 0.2
291 | YQMA | ≤ 0.2
292 | VHHC | ≤ 0.2
293 | ILYN | ≤ 0.2
294 | NFPG | ≤ 0.2
295 | AMWR | ≤ 0.2
296 | QCYG | ≤ 0.2
297 | PVSR | ≤ 0.2
298 | SFSS | ≤ 0.2
299 | SIAM | ≤ 0.2
300 | PIAL | ≤ 0.2
301 | YTTF | ≤ 0.2
302 | VQHI | ≤ 0.2
303 | DVDC | ≤ 0.2
304 | TFLK | ≤ 0.2
305 | MLRE | ≤ 0.2
306 | PCSK | ≤ 0.2
